The list shows a part of the results.

T1: UNK ZnF1-3 (human, UniProt Q9C0B0 31-174)
T1 sequence: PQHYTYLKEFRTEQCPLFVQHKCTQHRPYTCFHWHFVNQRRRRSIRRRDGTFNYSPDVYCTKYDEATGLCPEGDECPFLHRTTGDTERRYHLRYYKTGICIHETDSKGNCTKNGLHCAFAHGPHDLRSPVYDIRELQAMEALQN

B1: chr10:1042047:1042048:+_ENSG00000107937_ENST00000545048|hu_hu|motif|central (ssRNA)
RNA: GGGAGUUCUACAGUCCGACGAUCGUAGAGAGAGUCGCCAUACUUCAUCAGUCGCACAUAAUCUUUAGCAACAUUGUCCACGGAAUUUUUGGCAAUAUUUAUUUGCCCCAGAGCCAACUUGUAAUGAUCCUUGUCGUAGAGAAUCAACAGAGGAUUGAGCAUCA
B2: chr16:29649037:29649038:+_ENSMUSG00000038084_ENSMUST00000160597|mus_mus|FALSE|FALSE (ssRNA)
RNA: GGGAGUUCUACAGUCCGACGAUCCACAGUCUACUUCUCCUGGUGAAGAGCUUCAAUGAAAGCAUCAAGCUUUUCUUGAAUUUCUCUAACUUUCUUGAGAUCUUCUGCCAGCUGAACUCGUUUGCCAGUGAGCAAUUUAACCUUCAACAGAGGAUUGAGCAUCA
B3: chr18:34474267:34474268:+_ENSMUSG00000005871_ENSMUST00000115781|mus_hu|FALSE|FALSE (ssRNA)
RNA: GGGAGUUCUACAGUCCGACGAUCCUCUGAUUCUGUUUCAUUCCCAUUGUCAUUUUCCUGAACUGGAGGCAUUAUUCUUAAUUCCACAUCUUUCUGUAUAAAUGGCUCAUCGAGGCUCAGAGCACUCAGGCUGGAUGAACAAGACAACAGAGGAUUGAGCAUCA
B4: chr1:60041781:60041782:+_ENSMUSG00000041040_ENSMUST00000036540|mus_hu|mus_mus_mus_hu_False|48_98 (ssRNA)
RNA: GGGAGUUCUACAGUCCGACGAUCAAGUUUACAAUAGCUCAACUUUAGCAGUAGUGGCAAAUUUUCUUUUAUUUUCCUUCACAAAAGAAAACCUCAGUAACCCAGUCCUAGUCUUGGACAUAGUGAAAGCUAUAAAUUCUGACUCAACAGAGGAUUGAGCAUCA
B5: 70064772_70066678_665_CDS_ENSG00000087338_ENST00000282570|human|control|control (ssRNA)
RNA: GGGAGUUCUACAGUCCGACGAUCAUCAAUGUUCUGGUCAGGAAUCUCCAGUUCAAUAAUAUUCAUGCUGGAUUCUUUCCAAGAACCACUGAACAUACUAGAAAAGUAGCCAGAUUGACAUAAAUAUAUUUUGUGUAAGCUCCACAACAGAGGAUUGAGCAUCA
B6: chrX:130621085:130621086:+_ENSMUSG00000031256_ENSMUST00000033609|mus_mus|FALSE|FALSE (ssRNA)
RNA: GGGAGUUCUACAGUCCGACGAUCGUAAUAUCUUAAGUAUAUUAACUGUAAUCAAAUUUGUACUAUAGUUAGAAGCCAACUAUAUUGUCACUUUGUAUUGUUUGGAAUAACUGGAAAGGCCUGACGUACAUCAUGAGAUAAUUGCAACAGAGGAUUGAGCAUCA
B7: chr5:143539998:143539999:-_ENSG00000145817_ENST00000274496|hu_mus|motif|central (ssRNA)
RNA: GGGAGUUCUACAGUCCGACGAUCAGUUCAGAAGACAGAAAUCAGGGCAAAGACUCCAUACAACAAAGCACAGGGAUAUGCCACGGAAAGUUGUUGUCCAUCCAUAGCUAAUGCAGAAAUAAAAAUUUUGGAAGCAGAAAAACUCAACAGAGGAUUGAGCAUCA
B8: chr1:39494447:39494448:+_ENSG00000168653_ENST00000372967|hu_mus|hu_hu_hu_mus_False|28_108 (ssRNA)
RNA: GGGAGUUCUACAGUCCGACGAUCGCAUCGACCAGCCUUCUUAUAGGGCUGUUCUGCGCUUAGGAACAUAAAGUGCCGGUCCAGGCUGAUGCCCAGCUUUUUCUGUAUGUCCAAGAAAGGCAUGGCUCUGCAGUGCCCUUGUCACAACAGAGGAUUGAGCAUCA
B9: 90030650_90030925_1232_3pUTR_ENSG00000140995_ENST00000570182|human|control|control (ssRNA)
RNA: GGGAGUUCUACAGUCCGACGAUCGCACGUCGCCCUCUCUGCAGAGCUCACACACGAAGCCCUUGGCCUGGCACCGCUCGCAGUCCAGCUUGAUGUGCUUGGCGAAGAGCGUGUGGAUCUCGGUGAGCGAGCAGCCCAGGCGGCCAACAGAGGAUUGAGCAUCA
B10: 154703432_154703552_822_CDS_ENSMUSG00000074656_ENSMUST00000099173|mouse|control|control (ssRNA)
RNA: GGGAGUUCUACAGUCCGACGAUCAAAAGAAGUUUUCUUGGUUCCUACUCGGACGACCUGUGGAGGUUUCAUAACAAAUUUCCUCUUCUCUCCAGCAACCAUAUCUGGAUUCUUUUCUCUCAUGAUGUUGAACACUCGGUUCAGCAACAGAGGAUUGAGCAUCA
B11: chr14:90871293:90871294:+_ENSG00000198668_ENST00000553542|hu_mus|FALSE|FALSE (ssRNA)
RNA: GGGAGUUCUACAGUCCGACGAUCCAUUAGCAAAUGGAACUUUAAGGAGUCCACUAAGUGCUUCCUUAUAAGGUAGUACGAGUAUUUAUACUGUAAAACUGAUGUAGGGGCUUGACUUUAGGGGCAGGACCACCGACCAAUACACAACAGAGGAUUGAGCAUCA
B12: chr6:22256794:22256795:-_ENSMUSG00000029672_ENSMUST00000165576|mus_mus|motif|central (ssRNA)
RNA: GGGAGUUCUACAGUCCGACGAUCCCUGUUCUCAAGCAACUUUACUUCAUACACAUUCAAAUAUAUCCAGGCCAUAUGAUACGGCGGUGUUGAAUGGCAAAAACUUAAUUUUUAUAUGUUAAGAUGUAUCCAAAAAAAAAAAAACAACAGAGGAUUGAGCAUCA
B13: chr7:31009287:31009288:-_ENSMUSG00000006095_ENSMUST00000006254|mus_hu|FALSE|FALSE (ssRNA)
RNA: GGGAGUUCUACAGUCCGACGAUCAGCAGGGGAAUUCCUUAGGUGUCAUAUCUCGUCCAACCCGUAGUCCUCCUCCGGGAAGUCCCCCACCGUCACGACUGCUGGCUUGACAAAGGCGCCAUACUUGGCCUGGCAUUCGAAGUACAACAGAGGAUUGAGCAUCA
B14: chr18:43668140:43668141:-_ENSG00000152234_ENST00000398752|hu_hu|FALSE|FALSE (ssRNA)
RNA: GGGAGUUCUACAGUCCGACGAUCAAGUCUCUUCACCAACUGGGCAACAGUGGAUCUCUUUUGACCAAUAGCAACAUAAAUACAGUACAGCUUCUUCUUUUCAUCAGAUCCAUCAUUGAAACGUUUCUGGUUAAUGAUUGUGUCCAACAGAGGAUUGAGCAUCA

The test deals with T1, UNK ZnF1-3. Nature of the test: nsRBNS (natural sequence RNA bind-n-seq); RBNS binding buffer (assumed for nsRBNS): 25 mM Tris pH 7.5, 150 mM KCl, 3 mM MgCl2, 0.01% Triton X-100, 500 ug/ml BSA, 20 U/ml SUPERase-In, 4 C; UNK is unkempt and MSI1 is Musashi-1; names of the RNAs are library labels; protein concentration not given here; high values mean tight binding.
B1 showed a binding signal of 1.17 enrichment R.

The molecule B2 showed a binding signal of 0.703 enrichment R. For B3, the binding signal was 0.842 enrichment R. Molecule B4 came in with a binding signal of 0.602 enrichment R. The molecule B5 came in with a binding signal of 1.31 enrichment R. Consider B6, for which the binding signal was 1.06 enrichment R. Regarding B7, the binding signal stood at 1.86 enrichment R.

Consider B8, for which the binding signal was 0.761 enrichment R.

On to B9, for which the binding signal was found to be 0.505 enrichment R. The figure for B10 is 0.629 enrichment R; for B11 it is 0.881 enrichment R; for B12 it is 2.7 enrichment R.

Molecule B13 showed a binding signal of 1.13 enrichment R.

B14 gave a binding signal of 1.43 enrichment R.

The record behind these values is publication PMC12136788.
